Experimental data as given in paper PMC9021288 (Nature Communications, 2022).
Entries with a single value are a further part of the results.

Experiment: 7-day Maximum Tolerated Dose 1 (MTD1) rat study
Format: in vivo, Wistar Han rats
Design: unit not given here
Settings: MTD1 60 mg/kg/day, Females, Day 1 then Day 7
Source text: See the summary of the study design in Supplementary Table 31. Nine-week-old Wistar (Crl:WI (Han)) rats were obtained from Charles River Laboratories (Domaine des Oncins, Saint-Germain-Nuelles, France). […] Animals were examined daily for any altered clinical signs, body weights, and food consumption. Blood samples were taken at different timepoints after the test item administration, and toxicokinetic exposure assessed under the defined experimental conditions and analyzed using Phoenix (version 6.4 and 1.4) (Supplementary Table 32). Measurements included hematology and clinical chemistry measurements. Animals were euthanized and necropsied at the end of the dosing period. At necropsy, major organ systems and tissues were collected and weighed and then examined for gross lesions as well as for microscopic changes.

C[C@@H](CNC(=O)[C@H](O)C(C)(C)CO)NC(=O)c1cc(F)c(F)cc1F [MMV693183]
Cmax (Day 1): 73.1 | Cmax (Day 7): 59.5
